Data published in the supplement of paper PMC3334620.
The full ranking holds about 33,000 sequences; the median of “E-score (-0.5 to 0.5)” is about -0.056, and the highest 2% start at about 0.38. Some of the results follow.

Target: Stb4 (UniProt P50104)
Assay: PBM E-score (8-mer binding enrichment) (E-score (-0.5 to 0.5)); higher = stronger / more preferred TF binding; most listed sequences are background and not binding sites
Details: protein concentration: 200 nM; construct: GST-DNA-binding domain
Description: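 Universal 'all 10-mer' protein binding microarrays (Agilent AMADID 015681) probed with GST-tagged S. cerevisiae TFs (full-length or DBD) made by in vitro transcription/translation (PURExpress), about 100-200 nM. Bound TF was detected with fluorescent anti-GST. Each ungapped 8-mer (which stands for itself and its reverse complement) is scored by the PBM enrichment score (E-score), a modified Wilcoxon-Mann-Whitney statistic from -0.5 to +0.5, computed with the Universal PBM Analysis Suite. Scale: above 0.35 generally sequence-specific binding.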

Row | Sequence | PBM E-score
1 | ATGCTGCG | -0.186
2 | CTCAAACC | -0.0373
3 | AATGGCGG | 0.181
4 | AATCGGTC | 0.148
5 | CGAGGGAG | 0.13
6 | CACAGTAG | -0.0912
7 | CCATCTTA | 0.0253
8 | GTACAGAC | -0.132
9 | ACTAGTTG | -0.227
10 | ATAAAACA | -0.109
11 | CGCCACAC | -0.112
12 | ACCTCGTA | 0.0536
13 | CCATAGCA | -0.235
14 | AGTCGGGA | 0.362
15 | AACCCGGC | 0.31
16 | GACTGCGC | -0.0477
17 | TAGGGGCA | -0.229
18 | GCTCTTCA | -0.219
19 | CGGATGAA | 0.433
20 | CTTTAAAC | -0.118
21 | CATACTCA | 0.0149
22 | ATCAGTGG | -0.0961
23 | GTGGGATA | 0.0024
24 | ACATTGGG | -0.0778
25 | ACCAGGCA | -0.265

Row | Sequence | PBM E-score
26 | AGAGGGCC | -0.196
27 | AAATTGGG | 0.0125
28 | ATTCTACA | -0.0259
29 | TACTTAGA | -0.21
30 | CTAACGCC | -0.0765
31 | AGTGCACA | -0.0186
32 | AATATGGC | -0.0316
33 | AGCCTGTC | -0.131
34 | CAAAATGC | -0.121
35 | CCATGAGA | -0.0163
36 | GCTATGTA | -0.232
37 | AGGGTTAT | -0.0871
38 | AGCATCTG | -0.135
39 | ATGTTTTA | -0.24
40 | TAACCTGA | -0.0906
41 | AGAGAGCC | -0.116
42 | AGCTCTCC | 0.0268
43 | TACAACCA | -0.0767
44 | CTTTTATA | -0.0466
45 | ACGAATCC | 0.009
46 | CCTTACAG | -0.233
47 | CCGCAGTC | 0.112
48 | ACGGACGA | 0.0137
49 | TTGATCAA | -0.205
50 | GTTGCGGA | 0.229

Row | Sequence | PBM E-score
51 | CAGTAACA | 0.0723
52 | CCAAGCCC | -0.177
53 | CCTTTAGC | -0.117
54 | CATACCGC | 0.0129
55 | AGCTCGTG | 0.0631
56 | GCCTCCAC | -0.253
57 | CTGCACGA | -0.138
58 | AAACGTTT | 0.165
59 | ACCGATCC | 0.374
60 | CCACGGTA | 0.126
61 | ACGCGCTG | -0.0936
62 | TGGGGGAA | -0.18
63 | GTCACCAA | -0.278
64 | AATGGGGA | -0.247
65 | GACACAAC | -0.159
66 | GCATATGA | -0.0199
67 | AAACAGTA | -0.104
68 | CGAGCCTA | 0.127
69 | AATGGGCG | -0.00171
70 | AAGAGTTA | -0.197
71 | GAAACCAA | 0.104
72 | ACGTGCTG | -0.144
73 | AAGCGCGC | 0.00851
74 | ATAGGGCC | -0.0867
75 | TCCTAGAA | 0.0302

Row | Sequence | PBM E-score
76 | CCGAGTTC | 0.396
77 | TCCGGGCA | 0.32
78 | CGATACGC | 0.176
79 | CCTCGATC | -0.0971
80 | GAGGAGAC | -0.0994
81 | AGTGTTCA | -0.0759
82 | CTGTGCCC | 0.064
83 | ACCCGTCC | 0.175
84 | GGCGTTAA | 0.0285
85 | ACAGCGGT | -0.105
86 | GTCAACTA | -0.144
87 | ATCACGGA | 0.305
88 | ACAGAGCC | -0.145
89 | CCGTGTCG | 0.251
90 | CACCAATC | 0.0462
91 | ACGAGTCT | -0.142
92 | CTGGCAGA | -0.0155
93 | CTACGTCA | -0.0185
94 | CACGTTAG | -0.166
95 | GAATCAGC | -0.0158
96 | CCAAAGCG | 0.0505
97 | ATATTGGG | -0.0321
98 | AGTTAACT | 0.0736
99 | CATGTCAA | -0.218
100 | AATGACCC | -0.0646

Row | Sequence | PBM E-score
101 | ATCTCAAC | 0.0299
102 | CCCTATTA | -0.0824
103 | ACAGGGTG | -0.173
104 | AGAGCGCG | -0.0383
105 | CAGGCCAA | -0.0749
106 | CATCGAAA | -0.118
107 | ACTCGATA | -0.127
108 | AATGTCGG | 0.267
109 | AATACGCG | -0.077
110 | CCCCTATA | -0.147
111 | TATCATCA | -0.175
112 | AGGGGGCA | -0.145
113 | ATCTGTTA | -0.111
114 | CGATCCCA | 0.0781
115 | AAGAAACT | -0.156
116 | AACATAAT | -0.00773
117 | ATTATGGC | -0.0605
118 | GTGGTATA | -0.168
119 | CAAAATGA | -0.149
120 | CCCCCTGA | -0.303
121 | ACGAGCAA | -0.0941
122 | CCTTATCC | 0.175
123 | CAATGAAC | -0.0689
124 | ACACCACG | -0.219
125 | ACCATGAG | -0.154

Row | Sequence | PBM E-score
126 | CTATCGTA | -0.199
127 | AGATCCTC | 0.0598
128 | CAATTTTC | 0.0831
129 | ATCGTTTA | -0.0716
130 | AGCTGGAG | -0.223
131 | ATGCGCCC | 0.0117
132 | ATGAAGGG | -0.114
133 | GACAGTAA | 0.041
134 | TGAATAAA | -0.157
135 | CGTTGGGA | -0.27
136 | CTACGGAG | 0.137
137 | GCCAGACC | -0.0555
138 | CGGGATAG | 0.191
139 | CAAGCTAC | -0.0425
140 | AGGGCTTG | -0.349
141 | GCCCAGGC | -0.21
142 | ACTGCAAT | -0.0373
143 | CGCCGAAG | 0.372
144 | ACCACTGG | -0.103
145 | CGACCACA | -0.047
146 | AGCAGCAG | -0.176
147 | ACTCGCGA | -0.12
148 | GACGCGCC | -0.102
149 | ACAACGAA | -0.091
150 | ACAATTCC | -0.00681

Row | Sequence | PBM E-score
151 | GACCATAA | -0.0497
152 | CGCGTACA | -0.19
153 | AGTGCGTC | -0.216
154 | TAAAGGAA | -0.157
155 | CGTAGACC | -0.072
156 | CCGCCGGA | 0.366
157 | GCTCACGA | -0.228
158 | GATTGTCC | 0.181
159 | ATGCTGTC | -0.134
160 | ATGCGTGA | -0.149
161 | AACCAAGC | -0.109
162 | AACCACGC | -0.11
163 | ACAGTTAC | -0.11
164 | CGGTCGGA | 0.388
165 | ACAATATC | 0.0526
166 | CTATGGTA | -0.0297
167 | ATGCTACA | -0.163
168 | CCTGCACG | -0.169
169 | AAGGTAGC | -0.234
170 | CGTAAGAA | 0.0311
171 | CTATTGAC | -0.0362
172 | AGAGCTGC | -0.127
